Publication PMC4081100
This is a selection; strong and weak results do not stand in their true shares. For part of these data: At the low end of the ranking, values are background and their order means little. The list shows a part of the results. For part of these data: The source does not settle which construct or isoform was used.

Key:
Assay in all cases: universal protein binding microarray (PBM)
Settings in all cases: transcription factors of Arabidopsis thaliana; high values mean tight binding; most listed sequences are background and not binding sites; double strand, one strand shown
GST-ANAC019 NAC domain = target: T1, GST-ANAC019 NAC domain (UniProt Q9C932)
T1 sequence: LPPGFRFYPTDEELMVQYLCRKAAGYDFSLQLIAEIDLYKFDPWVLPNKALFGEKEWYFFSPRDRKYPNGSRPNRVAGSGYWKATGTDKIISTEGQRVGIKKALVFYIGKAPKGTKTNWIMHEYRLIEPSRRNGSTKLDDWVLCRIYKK

GST-ANAC055(1-171) = target: T2, GST-ANAC055(1-171) (UniProt Q9LDY8)
T2 sequence: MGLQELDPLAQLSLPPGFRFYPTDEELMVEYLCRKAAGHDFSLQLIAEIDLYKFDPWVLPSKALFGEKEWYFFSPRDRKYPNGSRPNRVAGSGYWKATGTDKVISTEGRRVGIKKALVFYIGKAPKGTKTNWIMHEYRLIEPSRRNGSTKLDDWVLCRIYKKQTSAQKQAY

GST-ATAF1 NAC domain = target: T3, GST-ATAF1 NAC domain (UniProt Q39013)
T3 sequence: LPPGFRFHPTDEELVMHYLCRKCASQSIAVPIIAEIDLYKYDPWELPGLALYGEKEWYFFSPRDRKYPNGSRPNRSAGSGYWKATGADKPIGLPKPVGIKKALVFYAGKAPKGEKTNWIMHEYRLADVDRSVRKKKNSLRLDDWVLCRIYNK

[1] = target: T4, GST-ANAC092(1-285) full length (UniProt Q9FKA0)
T4 sequence: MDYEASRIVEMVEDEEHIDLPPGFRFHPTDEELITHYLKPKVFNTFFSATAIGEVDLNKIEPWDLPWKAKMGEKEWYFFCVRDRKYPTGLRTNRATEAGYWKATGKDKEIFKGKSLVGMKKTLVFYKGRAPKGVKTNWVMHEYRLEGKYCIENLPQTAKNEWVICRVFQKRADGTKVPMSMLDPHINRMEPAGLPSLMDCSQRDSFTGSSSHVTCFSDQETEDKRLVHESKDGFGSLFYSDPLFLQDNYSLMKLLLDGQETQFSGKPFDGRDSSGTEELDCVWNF

GST-NAP(1-166) = target: T5, GST-NAP(1-166) (UniProt O49255)
T5 sequence: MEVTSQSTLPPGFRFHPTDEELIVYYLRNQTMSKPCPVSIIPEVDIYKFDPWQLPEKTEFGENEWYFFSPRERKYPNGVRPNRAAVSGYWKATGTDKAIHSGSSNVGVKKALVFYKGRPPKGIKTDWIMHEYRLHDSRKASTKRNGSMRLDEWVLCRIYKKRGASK

GST-SND1(1-203) = target: T6, GST-SND1(1-203) (UniProt Q9LPI7)
T6 sequence: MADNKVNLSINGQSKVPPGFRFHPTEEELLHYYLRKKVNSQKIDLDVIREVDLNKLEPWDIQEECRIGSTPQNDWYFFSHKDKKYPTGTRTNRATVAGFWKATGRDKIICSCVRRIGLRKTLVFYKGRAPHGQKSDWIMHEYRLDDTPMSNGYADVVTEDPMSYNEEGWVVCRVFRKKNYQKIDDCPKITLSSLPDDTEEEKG

GST-VND3 NAC domain = target: T7, GST-VND3 NAC domain (UniProt Q9FH59)
T7 sequence: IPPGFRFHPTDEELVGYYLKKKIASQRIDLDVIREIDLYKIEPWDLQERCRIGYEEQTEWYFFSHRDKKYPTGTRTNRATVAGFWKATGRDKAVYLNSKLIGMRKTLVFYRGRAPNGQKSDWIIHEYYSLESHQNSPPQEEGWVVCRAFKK

GST-VND7 NAC domain = target: T8, GST-VND7 NAC domain (UniProt Q9C8W9)
T8 sequence: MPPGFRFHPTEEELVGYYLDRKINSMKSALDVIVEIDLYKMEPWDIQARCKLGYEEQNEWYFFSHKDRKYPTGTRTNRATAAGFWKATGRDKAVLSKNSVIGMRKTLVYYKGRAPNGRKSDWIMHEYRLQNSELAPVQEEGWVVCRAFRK

[2] = target: T9, GST-VOZ2 (Arabidopsis thaliana) (UniProt Q9SLB9)
T9 sequence: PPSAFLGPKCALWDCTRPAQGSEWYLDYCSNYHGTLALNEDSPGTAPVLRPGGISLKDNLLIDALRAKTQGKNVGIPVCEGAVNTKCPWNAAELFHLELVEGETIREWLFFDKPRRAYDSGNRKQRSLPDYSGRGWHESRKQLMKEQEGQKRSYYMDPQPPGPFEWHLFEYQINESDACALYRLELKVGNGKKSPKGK

GST-WRKY1(266-371) = GST-WRKY1(266-371) (UniProt Q9SI37)
GST-ANAC092(1-176) = target: T10, GST-ANAC092(1-176) (UniProt Q9FKA0)
T10 sequence: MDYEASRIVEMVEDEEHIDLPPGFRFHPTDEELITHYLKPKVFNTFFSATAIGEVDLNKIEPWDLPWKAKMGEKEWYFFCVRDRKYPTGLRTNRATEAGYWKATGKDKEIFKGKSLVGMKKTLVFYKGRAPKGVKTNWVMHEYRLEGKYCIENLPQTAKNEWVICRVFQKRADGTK

GST-NTL6(1-168) = GST-NTL6(1-168) (UniProt Q9SCK6)
GST-NTL8 NAC domain = target: T11, GST-NTL8 NAC domain (UniProt Q9XIN7)
T11 sequence: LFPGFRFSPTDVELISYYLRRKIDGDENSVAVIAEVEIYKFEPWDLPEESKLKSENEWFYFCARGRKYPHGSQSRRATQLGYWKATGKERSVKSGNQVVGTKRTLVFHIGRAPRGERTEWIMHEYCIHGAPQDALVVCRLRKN

GST-NST2(1-184) = target: T12, GST-NST2(1-184) (UniProt Q9M274)
T12 sequence: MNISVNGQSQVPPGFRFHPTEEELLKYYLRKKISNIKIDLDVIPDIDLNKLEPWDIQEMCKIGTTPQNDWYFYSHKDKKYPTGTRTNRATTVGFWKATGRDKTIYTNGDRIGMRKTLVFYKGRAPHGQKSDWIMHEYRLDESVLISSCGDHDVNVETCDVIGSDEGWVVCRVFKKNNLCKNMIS

Sequence | binding signal (GST-ANAC019 NAC domain) [E-score] | binding signal (GST-ANAC055(1-171)) [E-score] | binding signal (GST-ATAF1 NAC domain) [E-score] | binding signal [1] [E-score] | binding signal (GST-NAP(1-166)) [E-score] | binding signal (GST-SND1(1-203)) [E-score] | binding signal (GST-VND3 NAC domain) [E-score] | binding signal (GST-VND7 NAC domain) [E-score] | binding signal [2] [E-score] | binding signal (GST-WRKY1(266-371)) [E-score] | binding signal (GST-ANAC092(1-176)) [E-score] | binding signal (GST-NTL6(1-168)) [E-score] | binding signal (GST-NTL8 NAC domain) [E-score] | binding signal (GST-NST2(1-184)) [E-score]
AAGGAAGC | 0.0288 | 0.0894 | -0.0389 | 0.13 | 0.036 | 0.175 | -0.0874 | -0.0203 | -0.0141 | -0.167 | – | – | – | –
AGTCAATC | – | 0.0374 | – | – | – | 0.0224 | 0.0908 | 0.039 | -0.00285 | 0.468 | 0.0925 | 0.0768 | 0.122 | –
CTCTTGAC | – | 0.00234 | – | -0.00598 | 0.0978 | 0.0466 | 0.0128 | 0.0151 | -0.0906 | 0.449 | – | -0.00404 | -0.0117 | 0.0336
CCTTTCCC | – | -0.147 | -0.185 | -0.151 | -0.0602 | -0.00651 | -0.0732 | -0.148 | -0.0308 | -0.159 | – | 0.11 | – | -0.137
AGCGTGTC | – | 0.174 | – | – | – | 0.131 | 0.156 | 0.208 | -0.0601 | 0.0118 | – | -0.0828 | -0.0427 | –
AAAGTCAG | – | 0.0444 | – | 0.0202 | -0.176 | -0.0765 | -0.00045 | -0.146 | -0.0935 | 0.461 | 0.1 | -0.08 | -0.0594 | –
TGACCTAA | -0.0367 | -0.0308 | 0.0102 | -0.0286 | -0.105 | -0.0828 | -0.0287 | -0.124 | -0.0148 | 0.419 | 0.0134 | – | 0.032 | -0.0243
GGTTTGAC | – | – | 0.171 | – | – | 0.0451 | 0.0413 | -0.0576 | 0.199 | 0.483 | 0.047 | 0.131 | -0.082 | 0.177
GGAGGAAA | -0.0683 | -0.0697 | -0.0282 | 0.0249 | 0.0241 | 0.031 | -0.0652 | -0.103 | -0.0711 | -0.203 | – | 0.146 | – | 0.0324
ACACGCTA | 0.16 | – | – | – | – | 0.438 | 0.079 | 0.104 | -0.0164 | -0.0616 | – | 0.0935 | -0.0465 | 0.4
TACACGCA | – | 0.382 | – | – | – | 0.385 | 0.404 | 0.385 | 0.213 | 0.00482 | 0.467 | – | 0.0162 | –
GCACGGAA | – | – | 0.357 | 0.413 | – | 0.156 | 0.402 | 0.453 | -0.0447 | 0.00131 | – | 0.0332 | 0.193 | –
GTCAAAAA | – | 0.0493 | – | – | -0.0635 | 0.216 | 0.0339 | 0.0546 | 0.168 | 0.442 | – | -0.011 | – | 0.121
GAGGGAAA | – | -0.0734 | 0.0327 | -0.0658 | – | 0.0484 | 0.00198 | 0.0212 | -0.0477 | -0.11 | 0.11 | – | – | -0.0367
CCACGTAA | 0.432 | – | 0.306 | – | 0.308 | 0.0962 | 0.326 | 0.341 | 0.0743 | 0.0192 | – | – | 0.167 | –
AGGAAACT | 0.0277 | – | – | – | 0.0881 | 0.041 | 0.0144 | 0.131 | -0.0326 | -0.0336 | 0.174 | – | 0.426 | 0.125
